According to the supplement of paper PMC8728848:
Some of the results follow.

What was measured:
Assay in all cases: glycan array binding signal (z-score within array); higher = stronger binding
Settings in all cases: glycan notation: IUPAC condensed, linker removed; mutation: Y228W
[1] = target: GlcNAc(b1-3)Gal(b1-4)GlcNAc(b1-3)Gal(b1-4)GlcNAc(b1-3)Gal(b1-4)GlcNAc(b1-3)Gal(b1-4)GlcNAc(b1-2)[GlcNAc(b1-3)Gal(b1-4)GlcNAc(b1-3)Gal(b1-4)GlcNAc(b1-3)Gal(b1-4)GlcNAc(b1-3)Gal(b1-4)GlcNAc(b1-6)]Man(a1-6)[GlcNAc(b1-3)Gal(b1-4)GlcNAc(b1-3)Gal(b1-4)GlcNAc(b1-3)Gal(b1-4)GlcNAc(b1-3)Gal(b1-4)GlcNAc(b1-2)Man(a1-3)]Man(b1-4)GlcNAc(b1-4)[Fuc(a1-6)]GlcNAc
Method in brief: (§1)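 Arrays were curated from the Consortium for Functional Glycomics database, 3228 in total, and kept only where the protein sequence was available. Binding is expressed as a within-array Z-score. This score was averaged across arrays of the same protein sequence at different concentrations or buffers and across linkers, and negative values can be read as non-binding.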

[2] = target: GlcNAc(b1-3)Gal(b1-4)GlcNAc(b1-3)Gal(b1-4)GlcNAc(b1-3)GalNAc
Method in brief: as §1

[3] = target: GlcNAc(b1-3)Gal(b1-4)GlcNAc(b1-3)GalNAc
Method in brief: as §1

[4] = target: GlcNAc(b1-3)Gal(b1-4)GlcNAc(b1-3)[GlcNAc(b1-3)Gal(b1-4)GlcNAc(b1-3)]GalNAc
Method in brief: as §1

[5] = target: GlcNAc(b1-3)Gal(b1-4)GlcNAc(b1-6)[Gal(b1-3)]GalNAc
Method in brief: as §1

[6] = target: GlcNAc(b1-3)Gal(b1-4)GlcNAc(b1-6)[GlcNAc(b1-3)Gal(b1-3)]GalNAc
Method in brief: as §1

[7] = target: GlcNAc(b1-3)Gal(b1-4)GlcNAc(b1-6)[GlcNAc(b1-3)]Gal(b1-4)GlcNAc
Method in brief: as §1

GlcNAc(b1-3)GalNAc = target: GlcNAc(b1-3)GalNAc
Method in brief: as §1

GlcNAc(b1-3)Man = target: GlcNAc(b1-3)Man
Method in brief: as §1

[8] = target: GlcNAc(b1-3)[GlcNAc(b1-4)][GlcNAc(b1-6)]GlcNAc
Method in brief: as §1

[9] = target: GlcNAc(b1-3)[GlcNAc(b1-6)]Gal(b1-4)GlcNAc
Method in brief: as §1

[10] = target: GlcNAc(b1-3)[GlcNAc(b1-6)]GalNAc
Method in brief: as §1

[11] = target: GlcNAc(b1-4)Gal(b1-4)GlcNAc
Method in brief: as §1

GlcNAc(b1-4)GlcNAc = target: GlcNAc(b1-4)GlcNAc
Method in brief: as §1

[12] = target: GlcNAc(b1-4)GlcNAc(b1-4)GlcNAc
Method in brief: as §1

[13] = target: GlcNAc(b1-4)GlcNAc(b1-4)GlcNAc(b1-4)GlcNAc(b1-4)GlcNAc
Method in brief: as §1

[14] = target: GlcNAc(b1-4)GlcNAc(b1-4)GlcNAc(b1-4)GlcNAc(b1-4)GlcNAc(b1-4)GlcNAc
Method in brief: as §1

[15] = target: GlcNAc(b1-4)[GlcNAc(b1-6)]GalNAc
Method in brief: as §1

[16] = target: GlcNAc(b1-6)Gal(b1-4)GlcNAc
Method in brief: as §1

GlcNAc(b1-6)GalNAc = target: GlcNAc(b1-6)GalNAc
Method in brief: as §1

[17] = target: GlcNAc6S(b1-3)Gal(b1-4)GlcNAc
Method in brief: as §1

Kdn(a2-3)Gal(b1-3)GalNAc = target: Kdn(a2-3)Gal(b1-3)GalNAc
Method in brief: as §1

Kdn(a2-3)Gal(b1-3)GlcNAc = target: Kdn(a2-3)Gal(b1-3)GlcNAc
Method in brief: as §1

Kdn(a2-3)Gal(b1-4)Glc = target: Kdn(a2-3)Gal(b1-4)Glc
Method in brief: as §1

Kdn(a2-3)Gal(b1-4)GlcNAc = target: Kdn(a2-3)Gal(b1-4)GlcNAc
Method in brief: as §1

[18] = target: Kdn(a2-3)Gal(b1-4)[Fuc(a1-3)]GlcNAc
Method in brief: as §1

Kdn(a2-6)Gal(b1-4)GlcNAc = target: Kdn(a2-6)Gal(b1-4)GlcNAc
Method in brief: as §1

[19] = target: Man(a1-2)Man(a1-2)Man(a1-3)Man
Method in brief: as §1

[20] = target: Man(a1-2)Man(a1-2)Man(a1-6)[Man(a1-3)]Man
Method in brief: as §1

Man(a1-2)Man(a1-3)Man = target: Man(a1-2)Man(a1-3)Man
Method in brief: as §1

B1: Epa1-NP-mutant-Y228W (Candida glabrata), Q6VBJ0 (protein)
chain: MILNPALFLNKCVCIYTTLILLLLTNGGYATSSNDISLASKDPTTFPLGCSPDITTPKKGLSMELYSYDFRKKGSYPCWDAAYLDPNYPRTGYKSHRLLAKVDGVTGNINFYYHATKGCTPQLGHLPASYNYPKPLTMTNFTMLLYGYFRPKVTGFHTFTISADDLLFVNFGAGNAFDCCRRDSSADHFGNYQAYAIWGSKTAKDELTVHLDAGVYYPIRLFYNNREWDGALSFTFKTESNENTVSDFSEYFFSLDDTEEGCPGLISYDSSCASVKTSKIIGIDYHTETPNENLVPITKTIYHLGIPCTGTTTTPLCGSGFYDPLANKCVTINTSSTSSVTKTTSHTTSKEVSFHSSISSQKTLIPKSIPSPYGPIKSQSIPTEMETSSEISSSEYAFSDVISTPSHSPYTKKHSSLNSSSYTSTVIHSLTSYSISQGIFSTSLSEQNITSKSSTDKFSTATSMSNNITQSSIIISQFSTNNENYTTTSMHTSSDKISTETLNNSISTTTSILFSNSSTILKNNTTIISSDKDTHYHPVNPTIVCSTNKTEIICASITQPSISNSNNHWSSSVLKFNSTTVRSTLPSSAGSNETSINVPFSSSTESNTSTSSTSTSNSKMVRSTLPSSAGSNETSISVPFSSSTESNTSTSSTSTSNSKMVRSTLPSSAGSNETSINVPFSSSTESNTSTSSTSTSNSKTVRSTPFSSAGIIMTSLSQRNNKSASSYASSNSKCYNTADSCRKVHSTPSYLLTSSYTSEGVDYDCSLVSTKLKINDTNCVNNKHTTKSCLKTSVTTTIPTLEIKTARKSSSNTIGLHSYPTSSPNKSISSAPIIGYISSFKTIKTASPSYQTSDLTTITTITSLNNPGSTAVENTHESNDKSRKTSSNDISSKHSVIKETKDAVESSNKSHQTNTLKCSSIIIASSSHNSYESLGGTTLTLTLSKVYSPQNNDTLPFLEISEVNPSRTVLPESSKMMQYLTSTEERNKTARNTIATNIVSISTFHFEGEGNAIRMGYTQLLLMLIGIIVMNIGT
[1]
  glycan array binding signal (z-score): 0.383
[2]
  glycan array binding signal (z-score): -0.068
[3]
  glycan array binding signal (z-score): -0.124
[4]
  glycan array binding signal (z-score): -0.271
[5]
  glycan array binding signal (z-score): -0.16
[6]
  glycan array binding signal (z-score): 0.098
[7]
  glycan array binding signal (z-score): -0.521
GlcNAc(b1-3)GalNAc
  glycan array binding signal (z-score): -0.098
GlcNAc(b1-3)Man
  glycan array binding signal (z-score): -0.193
[8]
  glycan array binding signal (z-score): -0.403
[9]
  glycan array binding signal (z-score): -0.07
[10]
  glycan array binding signal (z-score): -0.341
[11]
  glycan array binding signal (z-score): -0.126
GlcNAc(b1-4)GlcNAc
  glycan array binding signal (z-score): -0.198
[12]
  glycan array binding signal (z-score): -0.204
[13]
  glycan array binding signal (z-score): -0.175
[14]
  glycan array binding signal (z-score): -0.038
[15]
  glycan array binding signal (z-score): -0.409
[16]
  glycan array binding signal (z-score): 0.336
GlcNAc(b1-6)GalNAc
  glycan array binding signal (z-score): -0.054
[17]
  glycan array binding signal (z-score): 0.839
Kdn(a2-3)Gal(b1-3)GalNAc
  glycan array binding signal (z-score): -0.058
Kdn(a2-3)Gal(b1-3)GlcNAc
  glycan array binding signal (z-score): -0.107
Kdn(a2-3)Gal(b1-4)Glc
  glycan array binding signal (z-score): -0.277
Kdn(a2-3)Gal(b1-4)GlcNAc
  glycan array binding signal (z-score): -0.087
[18]
  glycan array binding signal (z-score): 0.171
Kdn(a2-6)Gal(b1-4)GlcNAc
  glycan array binding signal (z-score): 0.206
[19]
  glycan array binding signal (z-score): -0.209
[20]
  glycan array binding signal (z-score): -0.341
Man(a1-2)Man(a1-3)Man
  glycan array binding signal (z-score): -0.297
